Reference: patent EP4699613A1, “NOVEL USE OF CPNE7 PROTEIN-DERIVED PEPTIDE” (Hysensbio Co., Ltd, priority 2023, dated 2024)
Part of at least one peptide drawing is inferred or uncertain, most often the ends. No end group written: not given here.

Tests used:
Type I Collagen [1] = experiment: Type I Collagen synthesis ability of Group 1 to 12 peptides in human-derived dermal fibroblasts (Western blot, single treatment); assay type: cell-based; conditions: single treatment at 100 µM, 24 hours, normalization with β-Actin, Control = 1
Type IV Collagen = experiment: Immunofluorescence of Type IV Collagen in human-derived three-dimensional skin tissue; assay type: cell-based; conditions: 1 mM, 24 hours
collagen = experiment: Collagen formation ability in Neoderm-ED skin tissue (ex vivo), Masson Trichrome Staining; assay type: cell-based, human; conditions: 10 µM, 100 µM, 300 µM, 1,000 µM, treated twice at 48-hour intervals
[2] = tested on: human-derived three-dimensional skin tissue composed of keratinocytes and melanocytes; experiment: Skin whitening efficacy using Neoderm-ME (Melanin Content Assay, Fontana Masson Staining); assay type: cell-based; conditions: tested at 30 µM, 100 µM, 300 µM, 1000 µM; 48 hours; after UV-B radiation
[3] = tested on: Type I Collagen and Type III Collagen; experiment: Picro Sirius Red collagen staining in human-derived dermal fibroblasts; assay type: cell-based; conditions: 100 µM, 7 days
MMP-1 = experiment: Immunofluorescence of MMP-1 in human-derived three-dimensional skin tissue; assay type: cell-based; conditions: 1 mM, 24 hours
[4] = tested on: alpha-smooth muscle actin (α-SMA); experiment: α-SMA synthesis efficacy in hDFs (confocal microscope); assay type: cell-based, Human; conditions: single treatment at 100 µM, 48 hours, N=3
Type I Collagen [5] = experiment: Type I Collagen deposition following multiple administrations in hDFs (confocal microscope); assay type: cell-based, Human; conditions: 100 µM at 24-hour intervals for 7 days, day 7
Type I Collagen [6] = experiment: EC50 for Type I Collagen formation following multiple treatments in hDFs (Western blot); assay type: cell-based, Human; conditions: multiple treatments at 24-hour intervals for 7 days
[7] = tested on: human-derived three-dimensional skin tissue composed of keratinocytes and melanocytes; experiment: Anti-photodamage efficacy in Neoderm-ME tissue after UV-B (DCFDA, Filaggrin, Involucrin); assay type: cell-based; conditions: 100 µM, 48 hours after treatment, after UV-B radiation
Ki-67 = Ki-67 immunofluorescence, keratinocyte proliferation in human-derived three-dimensional skin tissue; assay type: cell-based; conditions: 1 mM, 24 hours

KYKQKKKSYK [compound 93] was tested, and the “Relative Protein Expression levels of Type I Collagen” value (from here on “Relative Protein Expression levels”) (Type I Collagen [1]) was 2.631.
KYKQKKRSYK [compound 95] was tested, and the “Relative Protein Expression levels” value (Type I Collagen [1]) was 3.432.
KYKQKRRNKY [compound 72] was tested, and the “Relative Protein Expression levels” value (Type I Collagen [1]) was 3.082.
In the case of KYKQKRRNYK [compound 88], the “Relative Protein Expression levels” value (Type I Collagen [1]) is reported as 4.409.
KYKQKRRSKY [compound 80] was tested, and the “Relative Protein Expression levels” value (Type I Collagen [1]) was 4.69.
KYKQKRRSYK [SEQ ID NO: 96, KYKQKRRSYK] was tested, and the “Type IV Collagen expression in the basement membrane” value (Type IV Collagen) was “increased Type IV Collagen expression”, the “collagen (blue) deposition amount compared to the negative control” value (collagen) was “increases dose-dependently” and the “concentrations at which significant melanin secretion reduction occurs” value [2] was “above 30 µM”. The “collagen positive for Picro Sirius Red compared to the control group” value ([3]; multiple application (total 7 times)) was “clearly increased much more”, the “collagen positive for Picro Sirius Red compared to the control group” value ([3]; single application (total 1 time)) was “higher” and the “MMP-1 expression in the epidermis and dermis” value (MMP-1) was “reduced MMP-1 expression”. The α-SMA protein level [4] was “significantly increases”, the “amount of Type I Collagen in the ECM (Extracellular Matrix) compared to the control group” value (Type I Collagen [5]) was “significantly increased” and the “Type I Collagen expression compared to the control group” value (Type I Collagen [6]) was “significantly increased”. For the same sequence, the EC50 (Type I Collagen [6]; normalization with β-Actin) was 8.62 pM, the “skin damage according to UV-B irradiation (reactive oxygen species reduction, anti-photodamage)” value [7] was “significant skin damage reduction effects” and the “increase of ratio of Ki-67 positive cells compared to the control group” value (Ki-67) was 5.3 fold. For the same sequence, the “ratio of Ki-67 positive cells” value (Ki-67; keratinocytes within the basal layer, control group 12.2 (±3.6)%) was 64.6 (±11.1%).
With KYKQKRRSYK [compound 96] the “Relative Protein Expression levels” value (Type I Collagen [1]) was 2.148.
In the case of KYKQRKKNKY [compound 65], the “Relative Protein Expression levels” value (Type I Collagen [1]) is reported as 1.62.
KYKQRKKNYK [compound 81] was tested, and the “Relative Protein Expression levels” value (Type I Collagen [1]) was 3.287.
With KYKQRKKSKY [compound 73] the “Relative Protein Expression levels” value (Type I Collagen [1]) was 1.918.
KYKQRKKSYK [compound 89] was tested, and the “Relative Protein Expression levels” value (Type I Collagen [1]) was 2.319.
KYQRKRRNKY [compound 8] was tested, and the “Relative Protein Expression levels” value (Type I Collagen [1]) was 2.312.
In the case of KYQRKRRNYK [compound 24], the “Relative Protein Expression levels” value (Type I Collagen [1]) is reported as 2.8985.
With KYQRKRRSKY [compound 16] the “Relative Protein Expression levels” value (Type I Collagen [1]) was 2.83.
For KYQRKRRSYK [compound 32], the “Relative Protein Expression levels” value (Type I Collagen [1]) was 3.292.
KYQRRKKNKY [compound 1] was tested, and the “Relative Protein Expression levels” value (Type I Collagen [1]) was 1.335.
KYQRRKKNYK [compound 17] was tested, and the “Relative Protein Expression levels” value (Type I Collagen [1]) was 1.999.
For KYQRRKKSKY [compound 9], the “Relative Protein Expression levels” value (Type I Collagen [1]) was 1.5182.
In the case of KYQRRKKSYK [compound 25], the “Relative Protein Expression levels” value (Type I Collagen [1]) is reported as 1.885.
KYRQKRRNKY [compound 40] was tested, and the “Relative Protein Expression levels” value (Type I Collagen [1]) was 3.505.
KYRQKRRNYK [compound 56] was tested, and the “Relative Protein Expression levels” value (Type I Collagen [1]) was 2.808.
For KYRQKRRSKY [compound 48], the “Relative Protein Expression levels” value (Type I Collagen [1]) was 3.158.
For KYRQKRRSYK [compound 64], the “Relative Protein Expression levels” value (Type I Collagen [1]) was 3.624.
In the case of KYRQRKKNKY [compound 33], the “Relative Protein Expression levels” value (Type I Collagen [1]) is reported as 2.034.
In the case of KYRQRKKNYK [compound 49], the “Relative Protein Expression levels” value (Type I Collagen [1]) is reported as 1.273.
KYRQRKKSKY [compound 41] was tested, and the “Relative Protein Expression levels” value (Type I Collagen [1]) was 1.6575.
With KYRQRKKSYK [compound 57] the “Relative Protein Expression levels” value (Type I Collagen [1]) was 1.401.
